Here are results for 67 cell lines from the supplement of paper PMC4967469.

A lower IC50 marks a more sensitive line; a limit (>, <) means that the fit lies beyond the doses tested. AUC is the area under the same curve over the 256-fold range up to the top dose, as a fraction; the more sensitive the line, the further below 1. The top dose, if marked as inferred, was derived from the fitted curves, not read from the paper.

Compound in the experiment: CC1=C(C(=O)Nc2cc3cn[nH]c3cc2F)C(c2ccc(C(F)(F)F)cc2)CC(=O)N1 [GSK429286A]
Description: Viability of human cancer cell lines after 72 h of drug (GDSC screen). To be noted: top dose inferred. As for the experimental part:
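Human cancer cell lines in 384-well plates, medium with 10% serum, drug for 72 h over a 256-fold dose range (nine 2-fold or five 4-fold steps up to the top dose). Adherent lines were fixed and stained with the nucleic acid dye Syto60, suspension lines read with resazurin; signal relative to control wells, capped at 0 and 100%. One two-parameter sigmoid per drug and line, fitted in a mixed model over all curves with the slope shared within a line.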
In general, IC50 refers to the concentration that gives 50% inhibition. On to “LoVo (large intestine, adherent, top dose 20 µM)”, for which the AUC worked out at 0.986 and the IC50 was over 20 µM.

As to “M14 (melanoma, adherent, top dose 20 µM)”, the AUC stood at 0.986 and the IC50 is over 20 µM.

On to “M059J (glioma, adherent, top dose 20 µM)”, for which the AUC was determined as 0.941 and the IC50 was over 20 µM.

As to “MC116 (B-cell lymphoma, suspension, top dose 20 µM)”, the AUC turned out to be 0.998 and the half-inhibitory concentration (IC50) was over 20 µM.

As for “MC-CAR (haematopoietic neoplasm, suspension, top dose 20 µM)”, the AUC stood at 0.963 and the IC50 is over 20 µM.

For the cell line “MC-IXC (neuroblastoma, adherent, top dose 20 µM)”, the AUC turned out to be 0.991 and the half-inhibitory concentration (IC50) was over 20 µM.

Regarding MCF7 (breast, adherent, top dose 20 µM), the AUC is 0.986 and the IC50 is over 20 µM.

For “MDA-MB-157 (breast, adherent, top dose 20 µM)”, the AUC came to 0.986 and the IC50 is over 20 µM.

In the case of “MDA-MB-175-VII (breast, adherent, top dose 20 µM)”, the AUC stood at 0.988 and the IC50 was over 20 µM.

With “MDA-MB-231 (breast, adherent, top dose 20 µM)”, the AUC was 0.92 and the IC50 is over 20 µM.

In the case of “MDA-MB-330 (breast, adherent, top dose 20 µM)”, the AUC came to 0.976 and the IC50 is over 20 µM.

Regarding “MDA-MB-361 (breast, adherent, top dose 20 µM)”, the AUC stood at 0.988 and the IC50 was over 20 µM.

Consider “MDA-MB-415 (breast, adherent, top dose 20 µM)”, for which the AUC was determined as 0.983 and the IC50 is over 20 µM.

Take “MDA-MB-436 (breast, adherent, top dose 20 µM)”: the AUC amounted to 0.983 and the IC50 is over 20 µM.

With “MDA-MB-453 (breast, adherent, top dose 20 µM)”, the AUC turned out to be 0.979 and the IC50 is over 20 µM.

For the cell line “MDA-MB-468 (breast, adherent, top dose 20 µM)”, the AUC was determined as 0.981 and the IC50 is over 20 µM.

Regarding “MDST8 (large intestine, adherent, top dose 20 µM)”, the AUC was determined as 0.979 and the IC50 is over 20 µM.

Regarding “ME-1 (acute myeloid leukaemia, suspension, top dose 20 µM)”, the AUC is 0.987 and the IC50 was over 20 µM.

As to “ME-180 (cervix, adherent, top dose 20 µM)”, the AUC amounted to 0.982 and the IC50 is over 20 µM.

Take “MEG-01 (chronic myeloid leukaemia, suspension, top dose 20 µM)”: the AUC turned out to be 0.955 and the IC50 was over 20 µM.

“MEL-JUSO (melanoma, adherent, top dose 20 µM)”: the AUC was 0.957 and the concentration for half-maximal inhibition (IC50) was over 20 µM.

Turning to “MES-SA (uterus, adherent, top dose 20 µM)”, the AUC amounted to 0.97 and the concentration for half-maximal inhibition (IC50) was over 20 µM.

For the cell line “MFE-280 (endometrium, adherent, top dose 20 µM)”, the AUC amounted to 0.982 and the IC50 was over 20 µM.

On to “MFE-296 (endometrium, adherent, top dose 20 µM)”, for which the AUC came to 0.982 and the IC50 was over 20 µM.

For the cell line “MFE-319 (endometrium, adherent, top dose 20 µM)”, the AUC came to 0.987 and the IC50 is over 20 µM.

Turning to “MFH-ino (soft tissue, adherent, top dose 20 µM)”, the AUC amounted to 0.975 and the IC50 is over 20 µM.

“MFM-223 (breast, adherent, top dose 20 µM)”: the AUC amounted to 0.979 and the IC50 is over 20 µM.

For the cell line “MG-63 (osteosarcoma, adherent, top dose 20 µM)”, the AUC was found to be 0.982 and the IC50 was over 20 µM.

On to “MHH-ES-1 (Ewing sarcoma, adherent, top dose 20 µM)”, for which the AUC came to 0.952 and the IC50 is over 20 µM.

Turning to “MHH-NB-11 (neuroblastoma, adherent, top dose 20 µM)”, the AUC was determined as 0.82 and the IC50 came to 13 µM.

Turning to “MHH-PREB-1 (B-cell leukaemia, suspension, top dose 20 µM)”, the AUC is 0.981 and the IC50 is over 20 µM.

With “MIA-PaCa-2 (pancreas, adherent, top dose 20 µM)”, the AUC is 0.979 and the IC50 is over 20 µM.

On to “MKN1 (stomach, adherent, top dose 20 µM)”, for which the AUC came out at 0.954 and the IC50 is over 20 µM.

“MKN28 (stomach, adherent, top dose 20 µM)”: the AUC was 0.982 and the IC50 was over 20 µM.

For the cell line “MKN45 (stomach, adherent, top dose 20 µM)”, the AUC worked out at 0.98 and the IC50 is over 20 µM.

As to “ML-1 (thyroid, adherent, top dose 20 µM)”, the AUC amounted to 0.974 and the IC50 was over 20 µM.

With “ML-2 (acute myeloid leukaemia, suspension, top dose 20 µM)”, the AUC amounted to 0.575 and the IC50 was found to be 1.96 µM.

With “MLMA (hairy cell leukaemia, semi-adherent, top dose 20 µM)”, the AUC was 0.93 and the IC50 is over 20 µM.

“MMAC-SF (melanoma, adherent, top dose 20 µM)”: the AUC turned out to be 0.974 and the IC50 was over 20 µM.

For “MN-60 (B-cell leukaemia, suspension, top dose 20 µM)”, the AUC was 0.963 and the IC50 is over 20 µM.

With “MOG-G-CCM (glioma, adherent, top dose 20 µM)”, the AUC was 0.972 and the IC50 is over 20 µM.

As to “MOG-G-UVW (glioma, adherent, top dose 20 µM)”, the AUC is 0.905 and the IC50 is over 20 µM.

As to “MOLM-13 (acute myeloid leukaemia, suspension, top dose 20 µM)”, the AUC turned out to be 0.837 and the IC50 was determined as 12.2 µM.

As for “MOLP-8 (myeloma, suspension, top dose 20 µM)”, the AUC was determined as 0.867 and the IC50 was 16.8 µM.

Take “MOLT-4 (lymphoblastic leukaemia, suspension, top dose 20 µM)”: the AUC is 0.884 and the IC50 stood at 14.7 µM.

In the case of “MOLT-13 (T-cell lymphoblastic leukaemia, suspension, top dose 20 µM)”, the AUC was determined as 0.869 and the IC50 worked out at 14.8 µM.

On to “MONO-MAC-6 (acute myeloid leukaemia, suspension, top dose 20 µM)”, for which the AUC was 0.883 and the IC50 was over 20 µM.

Take “MPP-89 (mesothelioma, adherent, top dose 20 µM)”: the AUC was 0.966 and the IC50 is over 20 µM.

Turning to “MRK-nu-1 (breast, suspension, top dose 20 µM)”, the AUC was found to be 0.99 and the IC50 is over 20 µM.

Turning to “MS751 (cervix, adherent, top dose 20 µM)”, the AUC is 0.988 and the 50% inhibitory concentration (IC50) was over 20 µM.

Regarding “MS-1 (small cell lung carcinoma, suspension, top dose 20 µM)”, the AUC worked out at 0.983 and the IC50 is over 20 µM.

Turning to “MSTO-211H (mesothelioma, adherent, top dose 20 µM)”, the AUC was 0.991 and the IC50 is over 20 µM.

Turning to “MV-4-11 (leukaemia, suspension, top dose 20 µM)”, the AUC was found to be 0.736 and the IC50 is 5.05 µM.

For the cell line “MY-M12 (leukaemia, suspension, top dose 20 µM)”, the AUC stood at 0.683 and the IC50 is 4.36 µM.

Take “MZ1-PC (pancreas, adherent, top dose 20 µM)”: the AUC turned out to be 0.967 and the half-inhibitory concentration (IC50) is over 20 µM.

For “MZ2-MEL (melanoma, adherent, top dose 20 µM)”, the AUC stood at 0.971 and the IC50 is over 20 µM.

As for “MZ7-mel (melanoma, adherent, top dose 20 µM)”, the AUC is 0.978 and the IC50 was over 20 µM.

For the cell line “Mewo (melanoma, adherent, top dose 20 µM)”, the AUC was found to be 0.974 and the half-inhibitory concentration (IC50) was over 20 µM.

As to “Mo-T (hairy cell leukaemia, suspension, top dose 20 µM)”, the AUC stood at 0.988 and the IC50 is over 20 µM.

Take “NALM-6 (B-cell leukaemia, suspension, top dose 20 µM)”: the AUC amounted to 0.756 and the IC50 worked out at 5.86 µM.

In the case of “NAMALWA (Burkitt lymphoma, suspension, top dose 20 µM)”, the AUC was found to be 0.962 and the IC50 was over 20 µM.

On to “NB5 (neuroblastoma, adherent, top dose 20 µM)”, for which the AUC came to 0.963 and the IC50 was over 20 µM.

Turning to “NB6 (neuroblastoma, adherent, top dose 20 µM)”, the AUC amounted to 0.854 and the IC50 was over 20 µM.

Take “NB7 (neuroblastoma, adherent, top dose 20 µM)”: the AUC was found to be 0.977 and the IC50 is over 20 µM.

Turning to “NB10 (neuroblastoma, adherent, top dose 20 µM)”, the AUC was determined as 0.982 and the IC50 was over 20 µM.

With “NB12 (neuroblastoma, adherent, top dose 20 µM)”, the AUC was 0.956 and the IC50 was over 20 µM.

For “NB13 (neuroblastoma, adherent, top dose 20 µM)”, the AUC was determined as 0.967 and the IC50 is over 20 µM.
